# According to PubChem BioAssay (NCATS):
# The inconclusive results got no clear call from the source; some entries with a clear call stand among them for comparison. For some assays here: Potencies of inconclusive entries are doubtful fits and often do not repeat. Active and inactive are the calls of the source. Unless noted, calls come from the whole dose curve; as a rule, active = well fitted curve in the direction sought with a large enough effect; inconclusive = small, poorly fitted or top-dose-only effect, or another doubt; inactive = no such curve, though single readings can be large; an effect the other way counts as inactive or inconclusive.
# Experiments:
# [1] = NFAT Signaling Pathway (AID 444; active = well fitted curve in either direction with a large enough effect, not every such curve was filed as active; inconclusive = small, poorly fitted or top-dose-only effect, or another doubt;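 note: carbachol stimulus at about its EC50 of 1 µM final; % is set by controls: 0 for no effect and ±100 for the full control effect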); conditions: Jurkat NFAT-bla M1, carbachol, beta-lactamase ratio, 5 h; at 7.69 µM (top of the series) unless noted
# Summary of the method: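 Jurkat cells carrying an NFAT-driven β-lactamase reporter and co-transfected muscarinic M1 receptor were treated with compound plus carbachol (1 uM final, an EC50 level) for 5 h at 37 °C. CCF4 loading followed for 1 h at RT; 460/530 nm ratio gave %activity.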
# [2] = target: 3',5'-cyclic-AMP phosphodiesterase 4B (Homo sapiens) (UniProt Q07343); experiment: qHTS Assay for Inhibitors of PDE-IV (AID 607; active = well fitted activation curve with a large enough effect in the main read-out, with a control signal flat, not every such curve was filed as active; inconclusive = small, poorly fitted or top-dose-only effect, or effect the other way, or a change in a side signal; note: % of control where 0% means no effect); conditions: HEK293 ACTOne CNG channel cells, membrane potential fluorescence; activation (PDE inhibition): at 22.9 µM (top of the series)
# UniProt Q07343, sequence (Q07343 whole entry, looked up): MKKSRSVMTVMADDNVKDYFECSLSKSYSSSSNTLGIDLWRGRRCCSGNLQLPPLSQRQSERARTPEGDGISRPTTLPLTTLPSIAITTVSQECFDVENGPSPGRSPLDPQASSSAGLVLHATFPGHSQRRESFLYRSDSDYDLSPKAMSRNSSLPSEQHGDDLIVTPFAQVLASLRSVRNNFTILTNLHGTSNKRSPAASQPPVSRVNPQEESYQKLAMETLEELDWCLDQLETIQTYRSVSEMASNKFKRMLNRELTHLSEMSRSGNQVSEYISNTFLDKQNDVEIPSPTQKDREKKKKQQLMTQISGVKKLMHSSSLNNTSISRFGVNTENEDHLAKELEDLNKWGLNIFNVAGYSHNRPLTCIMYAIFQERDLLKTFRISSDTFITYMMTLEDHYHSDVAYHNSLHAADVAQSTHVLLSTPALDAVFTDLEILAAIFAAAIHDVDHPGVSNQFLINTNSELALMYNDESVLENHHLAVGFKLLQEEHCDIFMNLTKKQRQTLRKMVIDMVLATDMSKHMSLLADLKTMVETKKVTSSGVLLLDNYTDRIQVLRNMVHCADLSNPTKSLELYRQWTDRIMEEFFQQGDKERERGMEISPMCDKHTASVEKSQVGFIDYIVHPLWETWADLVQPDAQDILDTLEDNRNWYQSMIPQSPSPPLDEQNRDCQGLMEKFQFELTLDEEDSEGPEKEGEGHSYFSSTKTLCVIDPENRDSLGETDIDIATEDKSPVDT
# Summary of the method: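 HEK293 ACTOne cells with CNG channel (1000/well), endogenous PDE4; membrane potential dye, compounds up to 22.9 uM final. Fluorescence Ex 535/Em 590; RO 20-1724 (100 uM final) as reference.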
# [3] = qHTS Assay for Identification of Small Molecule Agonists for Hypoxia Response Element Signaling Pathway (AID 914; active = well fitted activation curve with a large enough effect in the signal ratio, with a control signal flat, not every such curve was filed as active; inconclusive = small, poorly fitted or top-dose-only effect, or effect the other way, or a change in a side signal; the % refers to the signal ratio; note: potency is the fitted concentration of half-maximal effect; for activation: top concentration of the series differs between compounds; % of control where 0% means no effect); conditions: ME-180 HRE-bla reporter, beta-lactamase ratio, CoCl2, 17 h; activation: active compounds read high
# Summary of the method: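 Reporter activity (beta-lactamase, CCF4 460nm/530nm ratio) in HRE-bla ME-180 cells is recorded after 17 h compound exposure with EC50 CoCl2 at 37 degrees Celsius. AC50 values come from titration data.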
# [4] = Stat Signaling Pathway (AID 446; active = well fitted curve in either direction with a large enough effect, not every such curve was filed as active; inconclusive = small, poorly fitted or top-dose-only effect, or another doubt;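 note: ME-180 cervical cancer cells given 40 pM IL-6 alongside compound; SIE-controlled beta-lactamase reporter measured as 460/530 nm FRET emission ratio; top concentration of the series differs between compounds; % is set by controls: 0 for no effect and ±100 for the full control effect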); conditions: ME-180 SIE beta-lactamase reporter, IL-6 stimulated, 5 h; at 38 µM (top of the series) unless noted
# Summary of the method: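 ME-180 cells carrying a SIE-driven beta-lactamase reporter are stimulated with 40 pM IL-6 for 5 h at 37C in the presence of compound. The 460/530 nm FRET substrate ratio is read after 2.5 h at RT. Data are normalised to 300 pM IL-6 and to 125 nM JAK inhibitor controls.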
# [5] = qHTS Assay for Identification of Small Molecule Antagonists for NFkB Signaling Pathway (AID 895; active = well fitted inhibition curve with a large enough effect in the signal ratio, with a control signal flat, not every such curve was filed as active; inconclusive = small, poorly fitted or top-dose-only effect, or effect the other way, or a change in a side signal; the % refers to the signal ratio; note: potency is the fitted concentration of half-maximal effect); conditions: NFkB beta-lactamase reporter cells, FRET ratio 460/530; activity change, negative = inhibition: at 38.3 µM (top of the series) unless noted
# Summary of the method: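 NFkB-bla ME-180 cervical carcinoma cells with beta-lactamase reporter under NFkB response element; compounds added, then TNF alpha at 10 pM final (EC50), 5 h at 37 C. LiveBLAzer substrate 2 h, room temperature; emission 460/530 nm at 405 nm excitation.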
# [6] = qHTS Assay for Identification of Small Molecule Antagonists for Thrombopoietin (TPO) Signaling Pathway (AID 918); conditions: TPO-dependent cell signaling reporter, antagonist mode; activity change, negative = inhibition: at 38.5 µM (top of the series); note: nearly all actives have a fitted effect of over 60% in size
# Summary of the method: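 Ba/F3 (murine, hTPO-R, GPIIb-luc reporter); overnight IL-3 withdrawal; cpd + TPO 26 pM final (EC50); 24 h 37 C/5% CO2; Steadylite luminescence after 10 min RT.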
# [7] = qHTS Assay for Identification of Small Molecule Agonists for NFkB Signaling Pathway (AID 928; calls by dose curve); conditions: NFkB beta-lactamase reporter cells, blue/green ratio
# Summary of the method: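 ME-180 NFkB-bla cells carry a beta-lactamase reporter under an NFkB response element. Compound plus 10 pM TNF alpha (final) was applied for 5 hrs at 37 C. After 2 hrs with LiveBLAzer substrate, 460/530 nm emission was read at 405 nm excitation.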
# [8] = target: Muscarinic acetylcholine receptor M1 (Rattus norvegicus) (UniProt P08482); experiment: qHTS Assay for Antagonists of Acetylcholine Muscarinic M1 Receptor: Kinetic Measurement of Intracellular Calcium Response (AID 943); note: potency is the fitted concentration of half-maximal effect; nearly all actives have a fitted effect of over 75% in size
# UniProt P08482, sequence (P08482 whole entry, looked up): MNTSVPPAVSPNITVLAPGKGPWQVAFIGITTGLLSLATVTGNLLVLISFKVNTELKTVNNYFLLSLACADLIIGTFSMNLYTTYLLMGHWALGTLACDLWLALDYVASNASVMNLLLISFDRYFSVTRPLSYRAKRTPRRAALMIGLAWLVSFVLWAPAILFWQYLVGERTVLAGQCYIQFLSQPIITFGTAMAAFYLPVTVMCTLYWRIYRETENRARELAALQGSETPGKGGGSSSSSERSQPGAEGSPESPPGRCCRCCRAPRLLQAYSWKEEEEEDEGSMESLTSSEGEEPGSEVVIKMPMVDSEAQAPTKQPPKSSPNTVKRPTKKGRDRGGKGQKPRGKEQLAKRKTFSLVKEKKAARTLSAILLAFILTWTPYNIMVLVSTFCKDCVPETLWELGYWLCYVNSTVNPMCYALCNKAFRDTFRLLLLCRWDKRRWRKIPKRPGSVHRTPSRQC
# Summary of the method: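 Rat M1-CHO cells, 2000/well, overnight → Fluo-4 no-wash dye with probenecid, 1 h 37C → compound 10 min, room temp → basal read 6 s → carbachol EC80 (100 nM) → 4 min kinetic read; peak/basal.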
# [9] = target: Muscarinic acetylcholine receptor M1 (Rattus norvegicus) (UniProt P08482); experiment: qHTS Assay for Antagonists of Acetylcholine Muscarinic M1 Receptor: Measurement of IP-One Response (AID 944); note: potency is the fitted concentration of half-maximal effect; nearly all actives have a fitted effect of over 75% in size
# Tags give direction and shape of the fitted curve or compound fluorescence and quenching.
SMILES,"activity change, negative = inhibition [1]",Potency [2],activation [3],"activity, negative = inhibition [4]",Potency [5],Potency [3],"activity change, negative = inhibition [6]",Potency [7],Potency [8],Potency [9]
C[C@@]12CC[C@H](O)C[C@@H]1CC[C@@H]1[C@@H]2CC[C@@]2(C)[C@@H](C3=CC(=O)OC3)[C@H](O)C[C@]12O,inconclusive: -102% [inhibitor],inactive,inconclusive: -92.3%,,,,,,,
C[C@H](N[C@@H](C)CCc1ccccc1)[C@H](O)c1ccc(O)cc1,inconclusive: -35.6% [inhibitor] [at 38 µM],,,inactive: 28.9%,active: 8.9 nM [stimulated with 10 pM TNF alpha],"inconclusive: 2 nM [inhibitor, full curve, poor fit]",inconclusive: -26.6% [phenotype inactive],"inconclusive: 8.9 nM [inhibitor, full curve]","inconclusive: 15800 nM [inhibitor, partial curve, poor fit]","inconclusive: 15800 nM [inhibitor, partial curve]"
